Results: the RNAGym collection of RNA variant scans (doi:10.1093/nar/gkz1192)
Read counts are not given, so values of variants with three or more changes are uncertain.

B1: CPEB3 Ribozyme (parent)
chain: UAACAGGGGGCCACAGCAGAAGCGUUCACGUCGCAGCCCCUGUCAGAUUCUGGUGAAUCUGCGAAUUCUGCUGUAUAUCUC

Variants of: B1
Test: self-cleavage, relative activity (ratio to wild type); higher = more cleavage; in vitro, sequencing
In short: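 Barcoded CPEB3 ribozyme mutants, produced by rounds of error-prone PCR, self-cleaved while being transcribed with T7 RNA polymerase for 5 hours at 37°C and during a subsequent 15 min DNase I step before EDTA was added. Sequencing of template-switched cDNA on Illumina gave cleaved and total reads, and DNA sequencing assigned barcodes to variants. Each variant's relative activity is its cleaved/total read fraction divided by the unmutated ribozyme's fraction, averaged across three batches. A variant needed a minimum of 5 reads.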

Variant	self-cleavage
A20G U26A A77U	0.77
A20G U49C A64U U67C C79A	0.07
A20G U69C C81U	0.57
A20G U41A U69C	0.1
A20G C40U U41A U66C	0.2
A20G U26C G55U U60C U72C A77G	0.14
A20G G30A C34G U49C	0.19
A20G U66C U69A	0.19
A20U A35G U72A A77G	0.22
A20G C37U U41C U58C U69C U72C	0.13
A20U A28G A56G	0.17
A20G G36A U58C U60C	0.14
A20G U25C U31C U60C	0.21
A20G U31A U41C A57G A64U U80C	0.31
A20U A45G A56U A64G	0.05
A20G C44A U48C U60C G61A A77U	0.06
A20G U49C A64G U69A	0.18
A20G U26A U41A	0.36
A20G G36C U43C U48C A64U U67C U72C	0.19
A20G G30A G33A A47G U51C A64G A75G	0.06
A20G U26C A35U U51A G63A A65G U67C	0.17

Variant	self-cleavage
A20G U26A U60C	0.2
A20G U48A U60C	0.16
A20G U25C A35U C71U	0.21
A20G U48A U72C	0.37
A20U A45U A75G	0.2
A20G U31G A35G U51C	1.05
A20G U31C U54A A56U U60A U67C U78C	0.04
A20G U26C U48C	0.09
A20G C29U U67C U78C	0.27
A20G U25C G52C	0.21
A20U A35G A57U	0.34
A20G U31C U41C U51A U67C U72C	0.41
A20G U43A G53C A56G U60C G73C	0.13
A20U A21G U51G G55A	0.19
A20G U25C G33C A35U U41A A47G	0.13
A20U A35G A64G U72A	0.47
A20G U60C A64G U67C	0.21
A20G U49A U54C C68U	0.09
A20G U43C U54G U80A	0.41
A20G U31A A45G A77U	0.11
A20G U49C A56G U60C	0.55

Variant	self-cleavage
A20G U41C A47G	0.85
A20G G55U U80A	0.98
A20G U43G U80C	0.43
A20G U26C U51A G55U U72C U78C	0.47
A20G G30A U31C A57G	0.06
A20U A45G A47G U51G A77G C81U	0.05
A20G U43C U49A A56G	0.21
A20U A35G U51A	1.19
A20G U25A U48C U58C	0.16
A20G U48C U72A	0.27
A20G C62U U72A	0.16
A20G U58C U66C U67C	0.03
A20G G24C U41C A56G U60C G73A	0.04
A20G C32U A35G C50A A64G U72C	0.07
A20U A35G U72A U78C U80A	0.64
A20G C32A G53U	0.3
A20G U43A A57G U76A	0.97
A20U A21U U31C U48A A56G U74C	0.06
A20G G24C U26A A57G	0.23
A20U A21U A47G A56G U66C	0.18
A20G U41C U51A U67C U72A	0.8

Variant	self-cleavage
A20G U25A C40U A45G A57U	0.06
A20G U26C U54G U67C C71A C79G	0.07
A20G G33A C71A U72G C81U	0.05
A20G G24U A45U U49C U69A U74C	0.06
A20G U41C U54A A64G	0.31
A20G U66A U76C	0.43
A20G U54C A56U A75U	0.2
A20U A35G U60C	0.22
A20G U43C U67A U69A	0.17
A20G G52U U54C	1.06
A20G U26A A35U U41C U51C	0.3
A20G U25C A35C	0.37
A20G U26C C39U U41A A64C U66C U78C	0.03
A20G C29U U76C	0.38
A20G U78A U80C	0.95
A20U A28U A45U U48C U80G	0.04
A20G U41A U51G U66C	0.06
A20G U31A U41C A64U	0.11
A20U A35G U49A U51C	0.3
A20G C40A U49C U54C U72A U76C	0.08
